In publication PMC12136788:
Some of the results follow.

B1: chr3:11557161:11557262:-|3pUTR|ENSG00000144560|msi1|FALSE|unique (ssRNA)
RNA: GGGAGUUCUACAGUCCGACGAUCCCUCUGACUUUAUACUGUUAUUACUGCAUUUAUUAUUUGCUAUAUUAAUAGCUACUAACUAGAAAUUAGAUGAAGCAAGCAUGACAGACACAGCUGUGGAGGUCACAGCUGCUCCUUUUUCAACAGAGGAUUGAGCAUCA
B2: chr15:75505753:75505856:-|CDS|ENSG00000169410|unk|total|mutant (ssRNA)
RNA: GGGAGUUCUACAGUCCGACGAUCGGUGAACGGCCACCCAGAUCCCUUCGAUGAGAUCAUCCUGUUCUCCCUCCCUCCUGCCUCCGACUGGGACUCAGUACAUGUUCCAGGUCCCCAUGCUAUGACCAUCCAAGAGUUGGUGGACAACAGAGGAUUGAGCAUCA
B3: chr1:179108573:179108674:-|CDS|ENSG00000143322|unk|total|mutant (ssRNA)
RNA: GGGAGUUCUACAGUCCGACGAUCAGCCAAGUUAUUGCCCAGAGGAGCCACAGCUCUUCCUCUCAGAACACCCUCUGGGGAUCCCGCCAUUACAGAGAAGGACCCUCCAGGGGUGGGAGUGGCUGGAGUGGCAGCUGCCCCCAACAACAGAGGAUUGAGCAUCA
B4: ENSG00000107863:be:win_2051|CDS|ENSG00000107863|bound_else_gene|NA|bound_elsewhere_windowed (ssRNA)
RNA: GGGAGUUCUACAGUCCGACGAUCCUUUAUCUGGAGCCUCUGCCAAGCCUGCCCCUCAGUCGAGUGAAAACGCUGGUACUUCAGAUUUAGAACUACCUGUCAGUCAAAGGAAUCAAGAUUUAAGUUUACAAGAGGCUGAAACUGCAACAGAGGAUUGAGCAUCA
B5: chr11:119024350:119024909:-|three_prime_utr|ENSG00000137700|control|control|control (ssRNA)
RNA: GGGAGUUCUACAGUCCGACGAUCUCCCACGGUGGCCUUCCCCCUGCACGCUCUGCGGGGAGAAAAGGAGGGGCCUGCCUGGCUAGCCCUGAACCUUUCACUUUCCAUUUCUGCGCCUUUUCUGUCACCCGGGUGGCGCUGGAACAACAGAGGAUUGAGCAUCA
B6: chr11:61873518:61873813:-|three_prime_utr|ENSG00000221968|control|control|control (ssRNA)
RNA: GGGAGUUCUACAGUCCGACGAUCCCCUCACAUGUGUAUUCAGCAGCCCUAUGGCCUUGGCUCUGGGCCUGAUGGGACAGGGGUAGAGGGAAGGUGAGCAUAGCACAUUUUCCUAGAGCGAGAAUUGGGGGAAAGCUGUUAUUUCAACAGAGGAUUGAGCAUCA
B7: chr2:216675642:216675774:-|3pUTR|ENSG00000115461|msi1|total|mutant (ssRNA)
RNA: GGGAGUUCUACAGUCCGACGAUCUUUUUCUUUGUUUUUUUCUUUCUUCCUUUCUUUCAAAGGUUUGCAUUAACUUUUCAAAGCCGUUCCUACCGGGGCAUUGAGGAGCUUCCUCAUUCUGGGAAAACUGAGAAAACCCAUAUUCAACAGAGGAUUGAGCAUCA
B8: ENSG00000070961:be:win_3001|CDS|ENSG00000070961|bound_else_gene|NA|bound_elsewhere_windowed (ssRNA)
RNA: GGGAGUUCUACAGUCCGACGAUCGAAGGAAUCUUUAACAAUGCCAUCUUCUGCACAAUUGUUUUAGGCACUUUUGUGGUACAGAUAAUAAUUGUGCAGUUUGGUGGAAAACCUUUCAGUUGUUCAGAACUUUCAAUAGAACAGCAACAGAGGAUUGAGCAUCA
B9: chr20:4700211:4700532:+|3pUTR|ENSG00000171867|msi1|FALSE|unique (ssRNA)
RNA: GGGAGUUCUACAGUCCGACGAUCUUGCCUGGAUACCUCUGGCUCCUUCAGCAGCUAGAGCUCAGUAUACUAAUGCCCUAUCUUAGUAGAGAUUUCAUAGCUAUUUAGAGAUAUUUUCCAUUUUAAGAAAACCCGACAACAUUUCAACAGAGGAUUGAGCAUCA
B10: chr19:48485270:48485772:-|three_prime_utr|ENSG00000142235|control|control|control (ssRNA)
RNA: GGGAGUUCUACAGUCCGACGAUCCCCCUGACCCCCCUGACCCCCUCGGAGCCAAAUGAGGCAGGAAUCCCCCCGCCCCUCCAUAGAGAGCCGCCUUUCUCGGAACUGAACUGAACUCUUUUGGGCCUGGAGCCCCUCGACACACAACAGAGGAUUGAGCAUCA
B11: chr17:15565482:15566353:-|three_prime_utr|ENSG00000241322|control|control|control (ssRNA)
RNA: GGGAGUUCUACAGUCCGACGAUCCACCCAAAGAAAAAGUCUUGGAAAAUCCCUAUGUCACCUGACCAAUUCCUCCUGACUGUUAGCGCCCUGCAGCACGCCCGUAAUUCCGGGGAAUUUGCCUAUCCCUGUAGGCCCCAAACACAACAGAGGAUUGAGCAUCA
B12: chr2:196133582:196137729:-|three_prime_utr|ENSG00000081320|control|control|control (ssRNA)
RNA: GGGAGUUCUACAGUCCGACGAUCUCUGUAAGGUCCUCUGAAGACAAGACUUCUAAAUCCUCCUGUAAUGGAACCUGUGGUGAUAGAGAAGACAAAGAGAAUAUCCCAGAGGAUAGCAGCAUGGUUUCCAAAAGAUUUCGUUUCCAACAGAGGAUUGAGCAUCA
B13: chr11:113738268:113738383:-|CDS|ENSG00000086827|unk|total|mutant (ssRNA)
RNA: GGGAGUUCUACAGUCCGACGAUCUGCUUUUUGGCCCAAAUGCGGGCACAGAAAGGUGAACUUCUGGAAAGAUUAUCAAGUGCCCGGAACUUUUCAAAUAUGGACGAUGAAGAGAAUUAUUCUGCAGCAAGUAAAGCAGUCCGGCAACAGAGGAUUGAGCAUCA
B14: chr19:34227675:34227687:+|3pUTR|ENSG00000257103|msi1_unk|total|mutant (ssRNA)
RNA: GGGAGUUCUACAGUCCGACGAUCUUAAAACAUGAGCAUUAAAUAUAUUUGGAACCGCAGAAGGUUAAGUAAUUUCUUAUGUACCGUUAAACUAAAGCAGUACUUCAGUGGGACUUAACAAGUAUUUUUUCAUCACUGAAAGGUCAACAGAGGAUUGAGCAUCA

What follows are binders tested against MSI1 full-length (mouse, UniProt Q61474 1-362) (assay: nsRBNS (natural sequence RNA bind-n-seq); RBNS binding buffer (assumed for nsRBNS): 25 mM Tris pH 7.5, 150 mM KCl, 3 mM MgCl2, 0.01% Triton X-100, 500 ug/ml BSA, 20 U/ml SUPERase-In, 4 C; UNK is unkempt and MSI1 is Musashi-1; names of the RNAs are library labels; protein concentration not given here; high values mean tight binding).
Sequence of UniProt Q61474 (Q61474 whole entry): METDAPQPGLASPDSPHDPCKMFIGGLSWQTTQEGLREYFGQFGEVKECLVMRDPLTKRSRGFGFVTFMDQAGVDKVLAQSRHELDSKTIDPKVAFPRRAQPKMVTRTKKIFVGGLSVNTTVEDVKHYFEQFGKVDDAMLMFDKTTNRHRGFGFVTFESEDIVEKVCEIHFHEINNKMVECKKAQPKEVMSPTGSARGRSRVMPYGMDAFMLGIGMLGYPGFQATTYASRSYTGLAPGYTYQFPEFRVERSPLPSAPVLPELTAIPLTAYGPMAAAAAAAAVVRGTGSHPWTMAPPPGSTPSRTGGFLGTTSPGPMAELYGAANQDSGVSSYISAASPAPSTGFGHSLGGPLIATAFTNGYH

Row | Binder | binding signal [enrichment R]
1 | B1 | 5.68
2 | B2 | 0.65
3 | B3 | 0.418
4 | B4 | 0.537
5 | B5 | 0.361
6 | B6 | 0.542
7 | B7 | 0.255
8 | B8 | 0.441
9 | B9 | 10.4
10 | B10 | 0.962
11 | B11 | 0.519
12 | B12 | 0.485
13 | B13 | 0.248
14 | B14 | 1.31
